# In the supplement of paper PMC9446081:
# Screen size: about 39,000 compounds; about 220 (0.56%) showed activity. This is one part of the list.
# System: Escherichia coli K-12 BW25113
# Assay: relative growth (OD600 normalised to plate interquartile mean) (fraction); higher = less growth inhibition, active = 0.2 or less
# Details: 50 µM; LB; incubation time: overnight (16-24 h)
# 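Further: static incubation at 37 °C against the wild-type strain, values averaged over two biological replicates.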
row,SMILES,relative growth
1,C[C@@H]1CN([C@H](C)CO)C(=O)c2cc(NC(=O)CCN3CCOCC3)ccc2O[C@@H]1CN(C)C(=O)Nc1ccc(F)cc1,inactive: 0.974
2,C[C@H](CO)N1C[C@H](C)[C@H](CN(C)C(=O)NC2CCCCC2)OCCCC[C@H](C)Oc2ccc(NC(=O)NC3CCCCC3)cc2C1=O,inactive: 1.01
3,C[C@H]1CN([C@@H](C)CO)C(=O)Cc2cc(NC(=O)Nc3cccc4ccccc34)ccc2O[C@H]1CN(C)S(=O)(=O)c1ccc(F)cc1,inactive: 0.989
4,OC[C@H]1O[C@H](O)[C@H](O)[C@@H](O)[C@@H]1O,inactive: 1.01
5,COc1ccc(S(=O)(=O)Nc2ccc3c(c2)C(=O)N([C@H](C)CO)C[C@H](C)[C@@H](CN(C)C(=O)Nc2c(C)noc2C)O3)cc1,inactive: 0.99
6,COc1ccc([Si](C)(C)[C@H]2[C@H](CCO)O[C@@]3(C(=O)N(Cc4ccccc4)c4ccc(N5C(=O)c6ccccc6Oc6ccccc65)cc43)[C@@H]2C)cc1,inactive: 1.06
7,O=C(CN1CCOCC1)N[C@H]1CC[C@@H](CCNS(=O)(=O)c2ccccc2F)O[C@@H]1CO,inactive: 1.03
8,C[C@H]1CCCCO[C@@H](CN(C)Cc2ccc3c(c2)OCO3)[C@@H](C)CN([C@@H](C)CO)C(=O)c2cc(NS(=O)(=O)c3ccc(F)cc3)ccc2O1,inactive: 1.03
9,C[C@@H]1CN([C@H](C)CO)C(=O)c2cc(NS(=O)(=O)c3cn(C)cn3)ccc2O[C@@H]1CN(C)S(=O)(=O)c1ccccc1,inactive: 0.994
10,O=S(=O)(O)NC1CCCCC1,inactive: 1.07
11,C[C@@H]1CN([C@@H](C)CO)C(=O)Cc2cc(NC(=O)CCCCCC(=O)Nc3ccccc3N)ccc2O[C@H]1CN(C)Cc1ccc(-c2ccccc2)cc1,inactive: 0.977
12,C[C@@H]1CCCCO[C@H](CN(C)Cc2ccc(C(F)(F)F)cc2)[C@@H](C)CN([C@H](C)CO)C(=O)c2cc(NC(=O)Nc3ccccc3)ccc2O1,inactive: 0.997
13,C[C@@H]1CCCCO[C@H](CN(C)Cc2ccncc2)[C@H](C)CN([C@H](C)CO)C(=O)c2cc(NC(=O)Nc3ccc(C(F)(F)F)cc3)ccc2O1,inactive: 1.04
14,CO[C@@H]1CN(C)C(=O)c2cc(NC(=O)Nc3ccccc3F)ccc2OC[C@H](C)N(Cc2ccccc2C(=O)O)C[C@@H]1C,inactive: 0.994
15,C[C@H]1CN([C@@H](C)CO)C(=O)Cc2cc(NC(=O)Nc3ccc(C(F)(F)F)cc3)ccc2O[C@H]1CN(C)C(=O)Nc1ccc2c(c1)OCO2,inactive: 1.03
16,C[C@H]1CN([C@@H](C)CO)C(=O)c2cc(NS(=O)(=O)c3ccccc3)ccc2O[C@H]1CN(C)Cc1ccncc1,inactive: 1
17,O=C(C[C@H]1C[C@@H]2c3cc(NC(=O)C4CCOCC4)ccc3O[C@@H]2[C@@H](CO)O1)NCc1ccc(Cl)cc1,inactive: 0.994
18,N[C@H]1CCCN(Cc2cccs2)C1,inactive: 1
19,C[C@H]1CCCCO[C@H](CN(C)S(=O)(=O)c2cccs2)[C@@H](C)CN([C@@H](C)CO)C(=O)c2cc(NC(=O)Nc3ccccc3)ccc2O1,inactive: 1.05
20,C[C@H](CO)N1C[C@H](C)[C@H](CN(C)C(=O)Cc2cccnc2)Oc2cc(C#Cc3ccccc3F)ccc2S1(=O)=O,inactive: 0.995

row,SMILES,relative growth
1,COCC(=O)Nc1ccc2c(c1)C(=O)N(C)C[C@H](OC)[C@H](C)CN(Cc1ccccc1OC)[C@@H](C)CO2,inactive: 1.02
2,C[C@@H]1CN([C@H](C)CO)C(=O)c2cc(NC(=O)CCC(F)(F)F)ccc2O[C@@H](C)CCCCO[C@H]1CN(C)Cc1ccc(C(=O)O)cc1,inactive: 1.02
3,C[C@@H]1CN([C@H](C)CO)C(=O)c2cccc(NC(=O)c3ccc(-c4nccs4)cc3)c2O[C@@H]1CN(C)C(=O)Nc1ccc(F)cc1,inactive: 1.01
4,Cc1noc(C)c1NC(=O)Nc1ccc2c(c1)C(=O)N([C@@H](C)CO)C[C@@H](C)[C@@H](CN(C)CC1CCCCC1)OCCCC[C@H](C)O2,inactive: 0.999
5,C[C@@H]1CN([C@@H](C)CO)C(=O)c2cccc(NC(=O)Nc3ccc(C(F)(F)F)cc3)c2O[C@H]1CN(C)Cc1ccc(-c2ccccc2)cc1,inactive: 1.01
6,C[C@@H]1CN([C@H](C)CO)C(=O)c2cc(NC(=O)Nc3ccc(F)cc3)ccc2O[C@@H](C)CCCCO[C@@H]1CN(C)Cc1ccccc1,inactive: 0.994
7,C[C@H](CO)N1C[C@H](C)[C@@H](CN(C)Cc2ccc(Cl)c(Cl)c2)OCCCC[C@H](C)Oc2ccc(NS(=O)(=O)c3ccc(Cl)cc3)cc2C1=O,inactive: 0.981
8,COc1ccc(NC(=O)N(C)C[C@@H]2Oc3ccc(NS(C)(=O)=O)cc3C(=O)N([C@@H](C)CO)C[C@@H]2C)cc1,inactive: 0.989
9,COCCc1nc2c(c(=O)n(C)c(=O)n2C)n1C,inactive: 1.01
10,O=C(CCCCCCC(=O)N/N=C/[C@@H](O)[C@H](O)[C@H](O)CO)NO,inactive: 1.01
11,Cc1cc(C)c(S(=O)(=O)N2CCO[C@@H]2CNC(=O)C(=O)NCCCN2CCCC2=O)c(C)c1,inactive: 1.01
12,C[C@@H]1CN([C@H](C)CO)C(=O)c2cc(NC(=O)Cc3ccccc3)ccc2O[C@@H](C)CCCCO[C@@H]1CN(C)S(=O)(=O)c1cccs1,inactive: 1.03
13,C[C@H]1CN([C@@H](C)CO)S(=O)(=O)c2ccc(C#CCN(C)C)cc2O[C@H]1CN(C)Cc1ccc(F)cc1,inactive: 1.02
14,O=C(CN1CCOCC1)N[C@H]1CC[C@@H](CCNC(=O)C2CCCCC2)O[C@@H]1CO,inactive: 0.999
15,Cc1ccc(S(=O)(=O)N2C[C@@H](O)COC[C@H]3O[C@H](CC(=O)NCCN4CCCCC4)CC[C@@H]32)cc1,inactive: 0.964
16,Cn1c(=O)c2[nH]cnc2n(C)c1=O.NCCN,inactive: 1.01
17,C[C@H](CO)N1C[C@H](C)[C@H](CN(C)C(=O)c2ccccc2)OCCCC[C@H](C)Oc2ccc(NC(=O)Nc3cccc4ccccc34)cc2C1=O,inactive: 1.04
18,Nc1ccn([C@@H]2O[C@H](CO)[C@@H](O)[C@H]2O)c(=O)n1,inactive: 0.996
19,COc1ccc(S(=O)(=O)Nc2ccc3c(c2)C(=O)N([C@H](C)CO)C[C@@H](C)[C@H](CN(C)Cc2ccc(Oc4ccccc4)cc2)O3)cc1,inactive: 1.05
20,O=C(CN1CCNCC1)N1CCCC1,inactive: 1

row,SMILES,relative growth
1,C[C@@H]1CN([C@H](C)CO)C(=O)c2cc(NC(=O)C3CCCCC3)ccc2O[C@H]1CN(C)Cc1ccc(Oc2ccccc2)cc1,inactive: 0.979
2,Cc1cccc(-n2cc(CN)cn2)c1,inactive: 0.955
3,Nc1ncnc2c1nc(Br)n2[C@H]1O[C@H]2COP(=O)(O)O[C@@H]2[C@@H]1O,inactive: 0.988
4,CC(C)(C)[S@@](=O)N1Cc2cc(C(=O)N3CCCCC3)nc(-c3cccc(-c4ccc(C#N)cc4)c3)c2[C@H]1CCO,inactive: 1.02
5,C[C@@H]1CCCCO[C@@H](CN(C)Cc2ccc(C(=O)O)cc2)[C@H](C)CN([C@H](C)CO)C(=O)c2cc(NC(=O)CCC(F)(F)F)ccc2O1,inactive: 0.982
6,O=C(COP(=O)(O)O)[C@@H](O)[C@H](O)[C@H](O)COP(=O)(O)O,inactive: 0.987
7,CSc1nc(-c2ccccc2)cc(-c2cccs2)c1C#N,inactive: 1.03
8,CC(C)C[C@@H](N)C(=O)N[C@H]1C(=O)N[C@@H](CC(N)=O)C(=O)N[C@H]2C(=O)N[C@H]3C(=O)N[C@H](C(=O)N[C@H](C(=O)O)c4cc(O)cc(O)c4-c4cc3ccc4O)[C@H](O)c3ccc(c(Cl)c3)Oc3cc2cc(c3O[C@@H]2O[C@H](CO)[C@@H](O)[C@H](O)[C@H]2O[C@H]2C[C@](C)(N)[C@H](O)[C@H](C)O2)Oc2ccc(cc2Cl)[C@H]1O,inactive: 0.954
9,Cc1noc(C)c1S(=O)(=O)Nc1ccc2c(c1)C(=O)N([C@H](C)CO)C[C@@H](C)[C@H](CN(C)Cc1ccccc1)OCCCC[C@@H](C)O2,inactive: 1.02
10,COCC(=O)N1CC(=O)N2[C@@H](CO)[C@@H](c3ccc(C#Cc4cccnc4)cc3)[C@@H]2C1,inactive: 0.962
11,C[C@H]1CN([C@@H](C)CO)C(=O)c2cc(C3=CCCCC3)cnc2O[C@H]1CN(C)C(=O)CN1CCOCC1,inactive: 0.969
12,C[C@@H]1CCCCO[C@@H](CN(C)C(=O)C2CCCCC2)[C@@H](C)CN([C@H](C)CO)C(=O)c2cc(NC(=O)c3ccncc3)ccc2O1,inactive: 1
13,COCC(=O)N1[C@@H]2c3ccc(C4=CCCC4)c(=O)n3C[C@@H]2[C@@H](CO)[C@@H]1C(=O)N1CCN(C)CC1,inactive: 1
14,CC12CCC(=O)C=C1CCC1C2CCC2(C)C1CCC2(O)C(=O)CO (stereo not given),inactive: 1.14
15,C[C@H](CO)N1C[C@H](C)[C@H](CN(C)Cc2ccc(-c3ccccc3)cc2)Oc2c(NS(=O)(=O)c3ccccc3)cccc2C1=O,inactive: 0.977
16,C[C@H]1CN([C@@H](C)CO)C(=O)Cc2cc(NC(=O)CCC(F)(F)F)ccc2O[C@H]1CN(C)Cc1ccc(C(F)(F)F)cc1,inactive: 1.03
17,CCN1CC[C@]2(CN(S(C)(=O)=O)CC23CCN(Cc2cnn(C)c2)CC3)C1=O,inactive: 1.01
18,CO[C@H]1CN(C)C(=O)c2ccc(NC(=O)C3CC3)cc2OC[C@H](C)N(C(=O)CN2CCOCC2)C[C@@H]1C,inactive: 1.01
19,C[C@@H]1CN([C@H](C)CO)C(=O)c2cc(NS(C)(=O)=O)ccc2O[C@@H](C)CCCCO[C@@H]1CN(C)Cc1ccncc1,inactive: 0.991
20,C[C@H](CO)N1C[C@H](C)[C@@H](CN(C)C(=O)Nc2ccc(C(F)(F)F)cc2)Oc2ccc(NC(=O)NC3CCCCC3)cc2CC1=O,inactive: 1.01
